In the test the test system is MOLT-4 leukemia. In words: NCI-60 one-dose screen, 48 h (100 = growth as untreated, 0 = no growth, -100 = all killed).

The structures appear in SMILES notation. More than one record can exist for a structure, and the calls need not agree.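 Interpretation: 100, growth as untreated; towards 0, rising growth inhibition; 0, no net growth; 0 to -100, cell death. Compounds scoring below 10 were considered active.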 For part of its entries the source gives two or more results. The other results are left out here. The source may hold further records. The screen tested this drug many times, at its own concentration, as given; each value is one run. Signs of the kind (2×) give the number of equal values in this list.

The text below walks through data of PubChem BioAssay (NCI).

On to `COc1cccc2c1C(=O)c1c(O)c3c(c(O)c1C2=O)C[C@@](O)(C(=O)CO)C[C@@H]3OC1CC(N)C(O)C(C)O1` (stereo not given in full), for which the growth entry is “inactive: 17.1, 19.5, 15.5, 14.2 (3×), 11.9 (2×), 13.4 (2×), 12, 10.4, 14.5, 13.3, 10.6 (2×), 17.2 (2×), 12.2 (3×), 18.8, 16.6, 14.9, 16.3, 23.3, 13.5, 16.2, 16.4, 21.5, 15.2, 16, 11.7, 10.7 (2×), 11.4 (2×), 13.9, 14.1, 12.6, 15.8, 12.7, 18.5, 26.8, 23.2% and active: 9.34, 9.55, 8.48, 4.52, 9.94, 6.99, 7.86%” (0.25 µM, runs of 2018); “inactive: 16.5, 11.4, 11.9, 10.6 (3×), 10.3, 10.7, 16, 10.1, 18.4, 27.1, 17, 14.5, 13.5, 21.1, 13.6 (2×), 17.8, 12.9 (2×), 14.8, 16.2 (2×), 14.2, 15.6, 15.2, 14.6, 13.9% and active: 6.17, 1.97, 9.01, 5.34, 6.93, 6.25, 9.93, 8.3, 9.38, 6.64, 9.88, 7.31, 9.31%” (0.25 µM, runs of 2019); “active: -3.22, 8.51, 9.06, 6.69, 9.16, 7.23% and inactive: 10.8, 12.4, 10.7, 12.5, 13, 11.9, 14.8, 15.7, 17.1, 18.6, 12.6, 17, 18.9, 13.6, 13.1, 16.5%” (0.25 µM, runs of 2020); “active: 7.6 (2×), -1.82, 8.75, 7.98, 5.44, 7.56, 8.6, 5.41, 6.02, 6.59, 5.94, 2.3, 8.67, 8.66, 5.48, 8.24, 8.92, 5.19, 8.71% and inactive: 18.1 (2×), 13.3, 15.3 (3×), 11.4, 20.4, 17.9, 14.3, 15.6, 15.8, 11.8, 12.4 (2×), 10.7, 16.6, 15.1 (2×), 17.4, 12.6, 13.2, 10.8 (2×), 13, 12.2, 12.7, 11.5, 12.5, 15.5%” (0.25 µM, runs of 2021); “inactive: 20.2 (2×), 24.8, 21.8 (2×), 20.4, 15.1, 36.3, 28.2, 28.4, 21.1, 14.6, 21.3, 16.1, 25.9% and active: -12.4, -3.59, -5.33, 4.11, 1, 8.43, 6.63, 7.98, 6.21%” (0.25 µM, runs of 2022); “active: -29.3, -15.7, -9.63, -8.48, -29.1, -42.9, -37.9, -19.9, -39.8, -34.5, -19.5, -24, -5.22, -8.58, 0.936, -30.7, -26% and inactive: 10.8%” (25 µM, runs of 1991). Besides, the growth result is, setting by setting: (25 µM, runs of 1992) “active: -6.96, -33.5 (3×), -23.8, -44.8, -51.5, -18.9, -53.3, -32.7, -44.5, -39.7 (2×), -56.1, -54.7, -40.4, -32.2, -23.1, -31.5 (2×), -25.4, -34.9, -37.9 (2×), -34.3, -14, -42.4 (3×), -28.6, -7.66, -24.1, -31.8 (2×), 0.395, -18.4, -35.5 (2×), -16.7, -35.7, -34.7, 1.17, 1.57, -10, 4.12, -24.8, -20.9, -41.4, -40.1, -22.7, -27.3, -29, -16.2, 9.77, -43.3, -36.8, -40.8, -44.9, -0.338, -16.6, -44.7, -42.1, -47, -34.5, -28.8, -19.5, -41.2, -8.7, -20.5, -21.8, -35.8, -40.2, -40.5, -39.1, -43.6 (2×), -27.2, -11.4, -32, -63.1, 3.1, -25 (2×), -50.1, -38.7 (2×), -57.6, -51.6, -57.4, -38.8, 1.01, -44, -32.9, -22.6, -42.5, 2.96, -55.6, -30.1, -33.9, -25.5, -46.3, -36.2, -38.3 (2×), -10.7, -45.8, -49.7, -100, -23.4, 7.28, -47.9, -24.4, -28.5 (2×), -6.8, -12.4, -45.2, -27.1% and inactive: 11.6%, 17.7%”; (25 µM, runs of 1993) “active: -34.5, -26.2, -27.6 (2×), -29.9, -52.4, -48.4, -16.9, 1.89, -40.6, -31.7, 0.995, -44.8 (2×), -26.9, -40.2, -23.1, 5.51, -39.1, -18.9, -27.8 (2×), -20, -49.8, -27.1, -47.3, 0.941, -41.5, -47, 9.09, -15.5, -50.3, -47.7, -48.8, 9.92, -25.9, -45.8, -38.6, -0.107, -0.839% and inactive: 16.6, 11.3, 14, 28.3, 44.2, 21.3, 33.2%”; (25 µM, runs of 1994) “active: -57.3, -51.9, -60.1, -0.183, 5.15, -29.8, -45.1, -20.5, -10.7, -41.4, -27.4, -86.8, -34.1, 0.462, -26.4, -47.4, -27.3, -49.5, -27.9, -34.6, -30.6, -8.58, -4.2, -56.3, -8.27, -28.3, 1.51, -27, -52.5, -44% and inactive: 32.5%, 20.5%”; (25 µM, runs of 1995) “active: -36.8, 5.67, 2.9, -31.5, -24.6, -9.85, -24.2, -30.4, -50, -8.77, -18.5 (2×), -14.4, -11.4, -20, -24.7, -16.7, -17.9, -45.2, -30.6, 8.81, -11.6, -28.5, -40.6, -38.8, -2.24, -25.7, -3.94, -41.6, -38.4, 1.43, -44.1, -49.8, -29.2, -35.3, -45.6, -59.1, -42.8%”; (25 µM, runs of 1996) “active: -42.3 (2×), -21.1, -41.4, -0.152, -59.8, -31.3, 1.96, -43.5, -33.5, -47.1, -31.9 (2×), -44.4, -89.1, -42.7, -41.3, -49.4, 1.56, -28, -37.3, -24.8, -44.6, -38.3, -32.6, -9.17, -33.7, -37, -23.5, 0.2, -67.8, -52.1, -28.9, -12, -52.8, 7.96, -15.2, -32.5, -31.5, -35.8, -45.9, -24.2, -69.4, -48.2, -29.3% and inactive: 97.6, 13.2, 44.6, 11.9%”; (25 µM, runs of 1997) “active: -38.8, -30.3, -18.6, -33.5, -24.8, -7.39, -51.9, -48.4, -44.1, -0.974, -19.4, -26.6, -36.2, -55.9, -11.4, 4.47, -58.5, 5.09, -34.3, 2.55, -5.71, -47.9, -5.42, -4.98, -39, 6.58, -8.04, -20.9, 1.84, -46, -33.1, -29.2, -40.1, -28% and inactive: 15.2, 14.1, 15.1, 12.9, 59.4%”. Besides, the growth result was “active: -7.6, -15.2, -20, -7.74, -16, -51.6, -40.7, -53.6, -88.3, -5.95, 1.58, -64.1, 0.496, -30.6, -14.4, -9.22, 0.727, -9.35, -86.5, -35.3, -48.4, -62.5, -44% and inactive: 17%, 87.1%” (25 µM, runs of 1998); “active: -29.3, -1.61, -32.6, 3.78, -17.4, -56.2, 3.44, -32.5, -62.4, 5.32, 6.52, -92.6, 4.03% and inactive: 22.4%, 10.3%, 10.8%” (25 µM, runs of 1999); “active: -100, 6.87, 8.29, 6.16%” (25 µM, runs of 2000).
